Test results: publication PMC8759821
Where a chain is given by its changes, count along the chain named. These are yes or no findings as the source states them, for the method shown. Some entries that bind do so weakly or less than the wild type. Where a sequence is shown, tags or fusion partners need not be part of it. One block for each molecule: values may come before it.

Chains of the proteins cited; added tags and fusions are not shown.
UniProt P06104: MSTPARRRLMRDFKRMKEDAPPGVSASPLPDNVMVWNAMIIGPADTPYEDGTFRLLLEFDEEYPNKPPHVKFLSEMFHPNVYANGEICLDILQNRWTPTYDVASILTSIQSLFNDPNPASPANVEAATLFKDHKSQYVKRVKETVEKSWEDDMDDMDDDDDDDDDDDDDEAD
UniProt P15873: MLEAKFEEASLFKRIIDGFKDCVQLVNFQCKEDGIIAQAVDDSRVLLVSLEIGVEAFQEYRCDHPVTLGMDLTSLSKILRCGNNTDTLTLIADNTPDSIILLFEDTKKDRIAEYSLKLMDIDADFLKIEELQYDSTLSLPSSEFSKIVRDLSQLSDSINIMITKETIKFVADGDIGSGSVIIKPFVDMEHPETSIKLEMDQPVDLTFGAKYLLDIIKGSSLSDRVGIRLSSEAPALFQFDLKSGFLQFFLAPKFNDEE

How the values were obtained:
[1] = molecular target: T1, CC190,193GG Rad18 mutant protein (Zn*) (Saccharomyces cerevisiae) (UniProt P10862); assay: two-hybrid; as a1 but in the rad18Δ pol30-K164R variant of PJ69-4A (no endogenous Rad18, genomic PCNA K164R); growth on SC-leu/trp/his, 3-AT where indicated; 30 °C, 3-6 days
T1 sequence: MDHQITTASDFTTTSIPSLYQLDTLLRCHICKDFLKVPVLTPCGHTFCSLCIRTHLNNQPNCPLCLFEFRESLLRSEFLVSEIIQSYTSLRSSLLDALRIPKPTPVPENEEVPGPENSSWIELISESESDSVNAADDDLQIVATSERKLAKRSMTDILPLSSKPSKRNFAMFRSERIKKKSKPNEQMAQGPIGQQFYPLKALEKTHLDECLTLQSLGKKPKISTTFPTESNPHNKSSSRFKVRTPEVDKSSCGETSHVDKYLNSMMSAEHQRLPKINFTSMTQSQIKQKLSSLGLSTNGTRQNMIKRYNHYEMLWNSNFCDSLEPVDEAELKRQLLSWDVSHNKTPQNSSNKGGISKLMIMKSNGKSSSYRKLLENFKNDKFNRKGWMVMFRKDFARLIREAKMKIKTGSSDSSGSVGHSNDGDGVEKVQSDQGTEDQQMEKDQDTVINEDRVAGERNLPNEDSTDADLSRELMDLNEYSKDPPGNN

[2] = molecular target: T2, Rad18 (wild type, Saccharomyces cerevisiae) (Saccharomyces cerevisiae) (UniProt P10862); assay: as above
T2 sequence: T1 sequence with G190C, G193C

[3] = molecular target: T1, CC190,193GG Rad18 mutant protein (Zn*) (Saccharomyces cerevisiae); assay: two-hybrid; Gal4-BD (pGBT9+1) and Gal4-AD (pGAD424+1) fusions co-transformed into wt PJ69-4A; growth on SC-leu/trp/his (HIS3 reporter), 3-amino-1,2,4-triazole where indicated; 30 °C, 3-6 days
[4] = molecular target: T2, Rad18 (wild type, Saccharomyces cerevisiae) (Saccharomyces cerevisiae); assay: as above
[5] = molecular target: T3, Znf+ peptide (Rad18 amino acids 170-230, wt Zn-finger) (Saccharomyces cerevisiae) (UniProt P10862); assay: two-hybrid; Gal4-BD fusions of the Rad18 170-230 peptides (Znf+, Znf-) with Rad5; host strain of this panel (Figure 6C) not stated; growth on SC-leu/trp/his
T3 sequence: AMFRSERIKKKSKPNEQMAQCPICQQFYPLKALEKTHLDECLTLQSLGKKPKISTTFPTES

[6] = molecular target: T4, Znf- peptide (Rad18 amino acids 170-230, CC190,193GG mutant Zn-finger) (Saccharomyces cerevisiae) (UniProt P10862); assay: as above
T4 sequence: T3 sequence with C21G, C24G

[7] = molecular target: T1, CC190,193GG Rad18 mutant protein (Zn*) (Saccharomyces cerevisiae); assay: two-hybrid; Gal4-BD (pGBT9+1) and Gal4-AD (pGAD424+1) fusions co-transformed into wt PJ69-4A; growth on SC-leu/trp/his (HIS3 reporter), 3-amino-1,2,4-triazole where indicated; 30 °C, 3-6 days; remark: listed apart in the source
[8] = molecular target: T2, Rad18 (wild type, Saccharomyces cerevisiae) (Saccharomyces cerevisiae); assay: as above; remark: listed apart in the source
[9] = molecular target: Rad6 (Saccharomyces cerevisiae) (UniProt P06104); assay: as above
[10] = molecular target: Rad6 (Saccharomyces cerevisiae) (UniProt P06104); assay: two-hybrid; as a1 but in the rad18Δ pol30-K164R variant of PJ69-4A (no endogenous Rad18, genomic PCNA K164R); growth on SC-leu/trp/his, 3-AT where indicated; 30 °C, 3-6 days

binding [5]: binds | binding [6]: no binding | binding [7]: no binding | binding [8]: binds | binding [1]: no binding | binding [2]: binds
B1: Rad5 (protein, UniProt P32849 1-1169)
chain: MSHIEQEERKRFFNDDLDTSETSLNFKSENKESFLFANSHNDDDDDVVVSVSDTTEGEGDRSIVPVRREIEEEGQNQFITELLRIIPEMPKDLVMELNEKFGSQEEGLSLALSHYFDHNSGTSISKIPSSPNQLNTLSDTSNSTLSPSSFHPKRRRIYGFRNQTRLEDKVTWKRFIGALQVTGMATRPTVRPLKYGSQMKLKRSSEEISATKVYDSRGRKKASMASLVRIFDIQYDREIGRVSEDIAQILYPLLSSHEISFEVTLIFCDNKRLSIGDSFILQLDCFLTSLIFEERNDGESLMKRRRTEGGNKREKDNGNFGRTLTETDEELESRSKRLALLKLFDKLRLKPILDEQKALEKHKIELNSDPEIIDLDNDEICSNQVTEVHNNLRDTQHEEETMNLNQLKTFYKAAQSSESLKSLPETEPSRDVFKLELRNYQKQGLTWMLRREQEFAKAASDGEASETGANMINPLWKQFKWPNDMSWAAQNLQQDHVNVEDGIFFYANLHSGEFSLAKPILKTMIKGGILSDEMGLGKTVAAYSLVLSCPHDSDVVDKKLFDIENTAVSDNLPSTWQDNKKPYASKTTLIVVPMSLLTQWSNEFTKANNSPDMYHEVYYGGNVSSLKTLLTKTKTPPTVVLTTYGIVQNEWTKHSKGRMTDEDVNISSGLFSVNFYRIIIDEGHNIRNRTTVTSKAVMALQGKCKWVLTGTPIINRLDDLYSLVKFLELDPWRQINYWKTFVSTPFESKNYKQAFDVVNAILEPVLLRRTKQMKDKDGKPLVELPPKEVVIKRLPFSKSQDLLYKFLLDKAEVSVKSGIARGDLLKKYSTILVHILRLRQVCCHPGLIGSQDENDEDLSKNNKLVTEQTVELDSLMRVVSERFDNSFSKEELDAMIQRLKVKYPDNKSFQSLECSICTTEPMDLDKALFTECGHSFCEKCLFEYIEFQNSKNLGLKCPNCRNQIDACRLLALVQTNSNSKNLEFKPYSPASKSSKITALLKELQLLQDSSAGEQVVIFSQFSTYLDILEKELTHTFSKDVAKIYKFDGRLSLKERTSVLADFAVKDYSRQKILLLSLKAGGVGLNLTCASHAYMMDPWWSPSMEDQAIDRLHRIGQTNSVKVMRFIIQDSIEEKMLRIQEKKRTIGEAMDTDEDERRKRRIEEIQMLFE

binding [9]: binds | binding [8]: binds | binding [10]: binds | binding [2]: binds
B2: Rad18 (wild type, Saccharomyces cerevisiae) (protein, UniProt P10862 1-487)
chain: T1 sequence with G190C, G193C

Further lines, the molecule ahead of its results:

Molecule: PCNA (Pol30) (from UniProt P15873 1-258)
binding [1]: binds | binding [2]: binds | binding [3]: binds | binding [4]: binds

B3: CC190,193GG Rad18 mutant protein (Zn*) (protein, UniProt P10862 1-487)
chain: T1 sequence
binding [7]: binds | binding [9]: binds | binding [1]: binds | binding [10]: binds
